# Source: the supplement of paper PMC8728848
# This is one part of the list.
# Legend:
# Assay in all cases: glycan array binding signal (z-score within array); higher = stronger binding
# Conditions in all cases: glycan notation: IUPAC condensed, linker removed
# [1] = target: Neu5Ac(a2-6)Gal(b1-4)GlcNAc(b1-2)Man(a1-3)[Man(a1-6)]Man(b1-4)GlcNAc(b1-4)GlcNAc
# Procedure, shortened: (§1)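 Negative Z-scores can be read as non-binding. The Z-score is calculated within each array and then averaged across arrays of one protein sequence at different concentrations or buffers and across linkers. Arrays, 3228 in all, were curated from the Consortium for Functional Glycomics database and kept only where the protein sequence was available.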
# [2] = target: Neu5Ac(a2-6)Gal(b1-4)GlcNAc(b1-2)Man(a1-3)[Neu5Ac(a2-3)Gal(b1-4)GlcNAc(b1-2)Man(a1-6)]Man(b1-4)GlcNAc(b1-4)GlcNAc
# Procedure, shortened: as §1
# [3] = target: Neu5Ac(a2-6)Gal(b1-4)GlcNAc(b1-2)Man(a1-3)[Neu5Ac(a2-6)Gal(b1-4)GlcNAc(b1-2)Man(a1-6)]Man(b1-4)GlcNAc(b1-4)GlcNAc
# Procedure, shortened: as §1
# [4] = target: Neu5Ac(a2-6)Gal(b1-4)GlcNAc(b1-2)Man(a1-3)[Neu5Ac(a2-6)Gal(b1-4)GlcNAc(b1-2)Man(a1-6)]Man(b1-4)GlcNAc(b1-4)[Fuc(a1-6)]GlcNAc
# Procedure, shortened: as §1
# [5] = target: Neu5Ac(a2-6)Gal(b1-4)GlcNAc(b1-2)Man(a1-6)Man(b1-4)GlcNAc(b1-4)GlcNAc
# Procedure, shortened: as §1
# [6] = target: Neu5Ac(a2-6)Gal(b1-4)GlcNAc(b1-2)Man(a1-6)[Gal(b1-4)GlcNAc(b1-2)Man(a1-3)]Man(b1-4)GlcNAc(b1-4)GlcNAc
# Procedure, shortened: as §1
# [7] = target: Neu5Ac(a2-6)Gal(b1-4)GlcNAc(b1-2)Man(a1-6)[GlcNAc(b1-2)Man(a1-3)]Man(b1-4)GlcNAc(b1-4)GlcNAc
# Procedure, shortened: as §1
# [8] = target: Neu5Ac(a2-6)Gal(b1-4)GlcNAc(b1-2)Man(a1-6)[Man(a1-3)]Man(b1-4)GlcNAc(b1-4)GlcNAc
# Procedure, shortened: as §1
# [9] = target: Neu5Ac(a2-6)Gal(b1-4)GlcNAc(b1-2)[Neu5Ac(a2-6)Gal(b1-4)GlcNAc(b1-4)]Man(a1-3)[GlcNAc(b1-4)][Neu5Ac(a2-6)Gal(b1-4)GlcNAc(b1-2)[Neu5Ac(a2-6)Gal(b1-4)GlcNAc(b1-6)]Man(a1-6)]Man(b1-4)GlcNAc(b1-4)GlcNAc
# Procedure, shortened: as §1
# [10] = target: Neu5Ac(a2-6)Gal(b1-4)GlcNAc(b1-2)[Neu5Ac(a2-6)Gal(b1-4)GlcNAc(b1-4)]Man(a1-3)[GlcNAc(b1-4)][Neu5Ac(a2-6)Gal(b1-4)GlcNAc(b1-4)Man(a1-6)]Man(b1-4)GlcNAc(b1-4)GlcNAc
# Procedure, shortened: as §1
# [11] = target: Neu5Ac(a2-6)Gal(b1-4)GlcNAc(b1-2)[Neu5Ac(a2-6)Gal(b1-4)GlcNAc(b1-6)]Man(a1-6)[Neu5Ac(a2-6)Gal(b1-4)GlcNAc(b1-2)Man(a1-3)][GlcNAc(b1-4)]Man(b1-4)GlcNAc(b1-4)GlcNAc
# Procedure, shortened: as §1
# [12] = target: Neu5Ac(a2-6)Gal(b1-4)GlcNAc(b1-3)Gal(b1-3)GlcNAc
# Procedure, shortened: as §1
# [13] = target: Neu5Ac(a2-6)Gal(b1-4)GlcNAc(b1-3)Gal(b1-4)GlcNAc
# Procedure, shortened: as §1
# [14] = target: Neu5Ac(a2-6)Gal(b1-4)GlcNAc(b1-3)Gal(b1-4)GlcNAc(b1-2)Man(a1-3)[Neu5Ac(a2-6)Gal(b1-4)GlcNAc(b1-3)Gal(b1-4)GlcNAc(b1-2)Man(a1-6)]GalNAc
# Procedure, shortened: as §1
# [15] = target: Neu5Ac(a2-6)Gal(b1-4)GlcNAc(b1-3)Gal(b1-4)GlcNAc(b1-3)Gal(b1-4)GlcNAc
# Procedure, shortened: as §1
# [16] = target: Neu5Ac(a2-6)Gal(b1-4)GlcNAc(b1-3)Gal(b1-4)GlcNAc(b1-3)Gal(b1-4)GlcNAc(b1-2)Man(a1-3)[Neu5Ac(a2-6)Gal(b1-4)GlcNAc(b1-3)Gal(b1-4)GlcNAc(b1-3)Gal(b1-4)GlcNAc(b1-2)Man(a1-6)]GalNAc
# Procedure, shortened: as §1
# [17] = target: Neu5Ac(a2-6)Gal(b1-4)GlcNAc(b1-3)Gal(b1-4)GlcNAc(b1-3)GalNAc
# Procedure, shortened: as §1
# [18] = target: Neu5Ac(a2-6)Gal(b1-4)GlcNAc(b1-3)Gal(b1-4)GlcNAc(b1-3)[Neu5Ac(a2-6)Gal(b1-4)GlcNAc(b1-3)Gal(b1-4)GlcNAc(b1-6)]GalNAc
# Procedure, shortened: as §1
# [19] = target: Neu5Ac(a2-6)Gal(b1-4)GlcNAc(b1-3)Gal(b1-4)GlcNAc(b1-6)[Gal(b1-3)]GalNAc
# Procedure, shortened: as §1
# [20] = target: Neu5Ac(a2-6)Gal(b1-4)GlcNAc(b1-3)Gal(b1-4)[Fuc(a1-3)]GlcNAc(b1-3)Gal(b1-4)[Fuc(a1-3)]GlcNAc
# Procedure, shortened: as §1
# [21] = target: Neu5Ac(a2-6)Gal(b1-4)GlcNAc(b1-3)GalNAc
# Procedure, shortened: as §1
# [22] = target: Neu5Ac(a2-6)Gal(b1-4)GlcNAc(b1-3)[Neu5Ac(a2-6)Gal(b1-4)GlcNAc(b1-6)]GalNAc
# Procedure, shortened: as §1
# [23] = target: Neu5Ac(a2-6)Gal(b1-4)GlcNAc(b1-6)GalNAc
# Procedure, shortened: as §1
# [24] = target: Neu5Ac(a2-6)Gal(b1-4)GlcNAc(b1-6)[Gal(b1-3)GlcNAc(b1-3)]Gal(b1-4)Glc
# Procedure, shortened: as §1
# [25] = target: Neu5Ac(a2-6)Gal(b1-4)GlcNAc(b1-6)[Gal(b1-3)]GalNAc
# Procedure, shortened: as §1
# [26] = target: Neu5Ac(a2-6)Gal(b1-4)GlcNAc6S
# Procedure, shortened: as §1
# Neu5Ac(a2-6)GalNAc = target: Neu5Ac(a2-6)GalNAc
# Procedure, shortened: as §1
# [27] = target: Neu5Ac(a2-6)GalNAc(b1-4)GlcNAc
# Procedure, shortened: as §1
# [28] = target: Neu5Ac(a2-6)GalNAc(b1-4)GlcNAc6S
# Procedure, shortened: as §1
# [29] = target: Neu5Ac(a2-6)GlcNAc(b1-4)GlcNAc
# Procedure, shortened: as §1
# [30] = target: Neu5Ac(a2-6)GlcNAc(b1-4)GlcNAc(b1-4)GlcNAc
# Procedure, shortened: as §1
binder,measurement,setting,value
PX9961J-bvu-499-24-499 (Bacteroides vulgatus) (protein) LNTDPSTAVPSDDAIKNIDDAQVALNGIYRLASAHSYYGDNYLYYADCRGEDVQARINKGAGRRVSPYYFFDVTADDNFNITLVWNQPYKVIHQANSLIEKLDAGNAGNARPEEVARIKSEALAMRGLALFDLTRLFGMPYTLDNGASLGVPIEIQTTLEDHAPERNTVAQCYEQVLKDLNDALGGLTKEKHDAYMNYWSVKALLSRVYLYMNDNENALKCAEEVINDNGGIYRLFTHDEYPSVWGKDFNSESLFEFYFTMSEPSGGSGGEGAPMVYADNVKDWNNLILTKAYLDLLNEDPEDVRHVFPHLPENAVADTLPVAAKGQPKYLIKYPGKSGSVTDAVSTVNPQDNDLCILRLSEVYLNAAEAAFKIGNTEKALTYLNAIVTRANPAKSVTSADLSLERILKERRKELVGEGHAFFDYMRNGKSVDRSGGWHLTMPEDARVIAPSDPRVALPIPQTEIDANPNIVQNPR,glycan array binding signal (z-score),[1],-0.88
same,glycan array binding signal (z-score),[2],-0.255
same,glycan array binding signal (z-score),[3],-0.062
same,glycan array binding signal (z-score),[4],0.957
same,glycan array binding signal (z-score),[5],-0.353
same,glycan array binding signal (z-score),[6],-0.456
same,glycan array binding signal (z-score),[7],-0.17
same,glycan array binding signal (z-score),[8],0.007
same,glycan array binding signal (z-score),[9],-0.153
same,glycan array binding signal (z-score),[10],0.359
same,glycan array binding signal (z-score),[11],-0.411
same,glycan array binding signal (z-score),[12],-0.368
same,glycan array binding signal (z-score),[13],-0.402
same,glycan array binding signal (z-score),[14],-0.063
same,glycan array binding signal (z-score),[15],-0.689
same,glycan array binding signal (z-score),[16],0.564
same,glycan array binding signal (z-score),[17],-0.029
same,glycan array binding signal (z-score),[18],0.394
same,glycan array binding signal (z-score),[19],-0.563
same,glycan array binding signal (z-score),[20],-0.487
same,glycan array binding signal (z-score),[21],-0.651
same,glycan array binding signal (z-score),[22],-0.732
same,glycan array binding signal (z-score),[23],-0.2
same,glycan array binding signal (z-score),[24],0.356
same,glycan array binding signal (z-score),[25],-0.078
same,glycan array binding signal (z-score),[26],0.228
same,glycan array binding signal (z-score),Neu5Ac(a2-6)GalNAc,0.219
same,glycan array binding signal (z-score),[27],-0.736
same,glycan array binding signal (z-score),[28],-0.294
same,glycan array binding signal (z-score),[29],-0.555
same,glycan array binding signal (z-score),[30],1.19
